# Values joined by “and” are separate entries in the source; they are usually repeats but may differ in a detail not shown here. Equal values may be shown once. Where a name gives a salt, the structure may show the parent alone. The whole screen tested about 5,800 compounds, of which about 620 (11%) showed activity.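 Rule for the calls: active = score above a cut-off or among the top three wells of a plate; in these data no inactive exceeds 0.85.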 The list shows a part of the results, in another mix than the full data.
# Test system: primary human hepatic stellate cells (donor 1)
# Test: scaled lipid accumulation score (0 = DMSO-like, 1 = nortriptyline-like); higher = stronger HSC inactivation (lipid re-accumulation), active = hit call of the paper
# Conditions: 48 h
# [1] = library stock concentration: 10 mM
# [2] = library stock concentration: 3.33 mM
# [3] = library stock concentration: 80 uM
# [4] = library stock concentration: 400 uM
# [5] = library stock concentration: 2 mM
# [6] = library stock concentration: 1 mM
compound,measurement,setting,value
COc1cc(Nc2ncc(F)c(Nc3ccc4c(n3)N(COP(=O)(O)O)C(=O)C(C)(C)O4)n2)cc(OC)c1OC [Fostamatinib (R788)],scaled lipid accumulation score,[1],active: 1.01
"COc1cc(OC)cc(OC)c1 [1,3,5-trimethoxybenzene]",scaled lipid accumulation score,[1],inactive: ≤ 0
Nc1cccc2c1C(=O)N(C1CCC(=O)NC1=O)C2=O (stereo not drawn) [Pomalidomide],scaled lipid accumulation score,[2],inactive: ≤ 0
same,scaled lipid accumulation score,[1],inactive: ≤ 0
COc1cc(O)c(C(=O)c2ccccc2)cc1S(=O)(=O)O,scaled lipid accumulation score,[1],inactive: ≤ 0
O=c1cnn([C@@H]2O[C@H](CO)[C@@H](O)[C@H]2O)c(=O)[nH]1,scaled lipid accumulation score,[1],inactive: ≤ 0
COC(=O)C1=C(C)NC(C)=C(C(=O)NCCCN2CCC(c3ccccc3)(c3ccccc3)CC2)C1c1ccc([N+](=O)[O-])cc1 (stereo not drawn),scaled lipid accumulation score,[1],inactive: 0.548
Cc1ccc(C(=O)Nc2cccc(C(F)(F)F)c2)cc1Nc1nc(-c2cccnc2)nc2c1cnn2C,scaled lipid accumulation score,[2],active: 0.942
same,scaled lipid accumulation score,[1],active: 0.959
Oc1ccc(OC2CCCCO2)cc1 (stereo not drawn) [Deoxyarbutin],scaled lipid accumulation score,[2],inactive: ≤ 0
same,scaled lipid accumulation score,[1],inactive: ≤ -0.001
C=C1C[C@@]23CC[C@H]4[C@@](C)(CCC[C@@]4(C)C(=O)O)[C@@H]2CC[C@]1(O)C3 [Steviol],scaled lipid accumulation score,[1],inactive: ≤ 0
O=C(O)Cc1nn(Cc2ccc(Br)cc2F)c(=O)c2ccccc12 [Statil],scaled lipid accumulation score,[1],inactive: ≤ 0
N[C@@H](Cc1c[nH]c2ccc(O)cc12)C(=O)O [5-hydroxytryptophan (5-HTP)],scaled lipid accumulation score,[2],inactive: ≤ 0
same,scaled lipid accumulation score,[1],inactive: ≤ 0
N[C@@H](Cc1c[nH]c2ccc(O)cc12)C(=O)O [5-Hydroxy-L-tryptophan],scaled lipid accumulation score,[1],inactive: ≤ -0.07
CC(C)n1nc(-c2ccc3oc(N)nc3c2)c2c(N)ncnc21,scaled lipid accumulation score,[3],inactive: ≤ -0.016
same,scaled lipid accumulation score,[4],inactive: ≤ -0.015
same,scaled lipid accumulation score,[5],inactive: ≤ -0.016
same,scaled lipid accumulation score,[2],inactive: 0.032
same,scaled lipid accumulation score,[1],inactive: ≤ 0 and inactive: ≤ -0.016
N=C(N)Nc1ccc(C(=O)Oc2ccc3cc(C(=N)N)ccc3c2)cc1 [Nafamostat Mesylate],scaled lipid accumulation score,[2],inactive: 0.014
same,scaled lipid accumulation score,[1],inactive: ≤ 0
N=C(N)Nc1ccc(C(=O)Oc2ccc3cc(C(=N)N)ccc3c2)cc1 [Nafamostat mesylate],scaled lipid accumulation score,library stock concentration: 11.3 mM,inactive: 0.081
Cc1[nH]c2ccccc2c1C1=C(NCCc2ccc(F)cc2)C(=O)N(C)C1=O,scaled lipid accumulation score,[2],inactive: ≤ -0.009
same,scaled lipid accumulation score,[1],inactive: 0.098
O=C1C(SCCO)=C(SCCO)C(=O)c2ccccc21,scaled lipid accumulation score,[1],active: 1.2
CC(Cc1ccccc1)(NC(=O)CN)c1ccccc1 (racemic),scaled lipid accumulation score,[1],active: 0.922
NC(N)=Nc1ccc(Cl)cc1 [4-Chlorophenylguanidine hydrochloride],scaled lipid accumulation score,[1],inactive: 0.022
CCCCCCCCCCCCCCCC(=O)OC[C@@H](NC(=O)C(Cl)Cl)[C@H](O)c1ccc([N+](=O)[O-])cc1 [Chloramphenicol palmitate],scaled lipid accumulation score,library stock concentration: 3.6 mM,inactive: 0.026
[O-]/[N+](=N\O[C@@H]1O[C@H](CO)[C@H](O)[C@H](O)[C@H]1O)N1CCCC1 [.beta.-Gal-NONOate],scaled lipid accumulation score,[6],inactive: ≤ 0
Oc1ccc2ccccc2c1SSc1c(O)ccc2ccccc12,scaled lipid accumulation score,[2],inactive: ≤ -0.009
same,scaled lipid accumulation score,[1],inactive: 0.665
COc1cc2nc(N(C)CCCNC(=O)C3CCCO3)nc(N)c2cc1OC (stereo not drawn) [Alfluzosin],scaled lipid accumulation score,library stock concentration: 5.1 mM,inactive: ≤ 0
COc1cc2nc(N(C)CCCNC(=O)C3CCCO3)nc(N)c2cc1OC (stereo not drawn) [Alfuzosin hydrochloride],scaled lipid accumulation score,,inactive: ≤ 0
same,scaled lipid accumulation score,[1],inactive: 0.274
COc1cc2nc(N(C)CCCNC(=O)C3CCCO3)nc(N)c2cc1OC (stereo not drawn),scaled lipid accumulation score,[1],inactive: ≤ 0
COc1cc2nc(N(C)CCCNC(=O)C3CCCO3)nc(N)c2cc1OC (stereo not drawn) [Alfluzocin],scaled lipid accumulation score,[1],inactive: 0.025
COc1cc2nc(N(C)CCCNC(=O)C3CCCO3)nc(N)c2cc1OC (stereo not drawn) [Alfuzosin HCl],scaled lipid accumulation score,[2],inactive: ≤ 0
same,scaled lipid accumulation score,[1],inactive: ≤ 0
O=C(Nc1cccc2cccnc12)c1ccc(N2C(=O)C3C4C=CC(C4)C3C2=O)cc1 (stereo not drawn) [IWR-1-endo],scaled lipid accumulation score,[2],inactive: ≤ 0
same,scaled lipid accumulation score,[1],inactive: ≤ -0.001
O=C(O)/C=C/c1ccc(O)c(O)c1 [Caffeic acid],scaled lipid accumulation score,,inactive: ≤ 0
O=C(O)/C=C/c1ccc(O)c(O)c1 [Caffeic Acid],scaled lipid accumulation score,[6],inactive: ≤ 0
same,scaled lipid accumulation score,[2],inactive: 0.002
same,scaled lipid accumulation score,[1],inactive: ≤ 0 and inactive: 0.016
CCCCc1nc2cc(/C=C/C(=O)NO)ccc2n1CCN(CC)CC,scaled lipid accumulation score,[3],inactive: ≤ 0
same,scaled lipid accumulation score,[4],inactive: ≤ 0
same,scaled lipid accumulation score,[5],inactive: 0.416
same,scaled lipid accumulation score,[1],inactive: 0.388
CCCCc1nc2cc(/C=C/C(=O)NO)ccc2n1CCN(CC)CC [Pracinostat (SB939)],scaled lipid accumulation score,[2],inactive: 0.45
same,scaled lipid accumulation score,[1],inactive: 0.23
CCCCCC1OC(O)CC1SC[C@H](NC(C)=O)C(=O)O (stereo partly drawn) [4-hydroxy Nonenal Mercapturic Acid],scaled lipid accumulation score,[6],inactive: ≤ 0
O=C(CCc1ccc(O)c(O)c1)N[C@@H](CC(=O)OCc1ccccc1)C(=O)OCc1ccccc1,scaled lipid accumulation score,[6],inactive: ≤ 0
C#C[C@]1(OC(C)=O)CC[C@H]2[C@@H]3CCC4=CC(=NO)CC[C@@H]4[C@H]3CC[C@@]21CC (mixture of isomers) [Norgestimate],scaled lipid accumulation score,library stock concentration: 5.4 mM,inactive: ≤ 0
COc1ccc2cc([C@H](C)CO)ccc2c1 [Naproxol],scaled lipid accumulation score,library stock concentration: 9.2 mM,inactive: ≤ 0
same,scaled lipid accumulation score,[1],inactive: 0.031
"Cl.O[Si](CCCN1CCCCC1)(c1ccc(F)cc1)C1CCCCC1 (stereo not drawn) [Hexahydro-sila-difenidol hydrochloride, p-fluoro analog]",scaled lipid accumulation score,[1],active: 0.956
O=C1c2ccccc2C(=O)C1c1ccc(Cl)cc1,scaled lipid accumulation score,[1],inactive: 0.203
Clc1ccc(C2(c3ccc(-c4cn[nH]c4)cc3)CCNCC2)cc1,scaled lipid accumulation score,[2],active: 1.22
"CC(C)n1cnc2c(NCc3ccccc3O)nc(NCCCO)nc21 [Cdk Inhibitor, p35]",scaled lipid accumulation score,[2],inactive: ≤ 0
CCCCC[C@H](O)/C=C/[C@@H]1[C@@H](C/C=C\CCCC(=O)NCC)[C@@H](O)C[C@H]1O [Prostaglandin F2.alpha. ethyl amide],scaled lipid accumulation score,[6],inactive: ≤ 0
O=C(O)C1CCCN(CCC=C(c2ccccc2)c2ccccc2)C1 (stereo not drawn),scaled lipid accumulation score,[1],inactive: ≤ 0 and inactive: ≤ -0.006

# Source: the supplement of paper PMC9135407
